Source: the GPR68 mutational scans of Howard et al. (2025)
The least precise scores are not listed. Two further conditions of the source, in which the scores hardly spread, are not listed. In variant names, del marks residues removed and ins residues inserted between the two positions. For some assays here: The data file names ogerin without a concentration.

B1: GPR68, Q15743 (parent)
chain: MGNITADNSSMSCTIDHTIHQTLAPVVYVTVLVVGFPANCLSLYFGYLQIKARNELGVYLCNLTVADLFYICSLPFWLQYVLQHDNWSHGDLSCQVCGILLYENIYISVGFLCCISVDRYLAVAHPFRFHQFRTLKAAVGVSVVIWAKELLTSIYFLMHEEVIEDENQHRVCFEHYPIQAWQRAINYYRFLVGFLFPICLLLASYQGILRAVRRSHGTQKSRKDQIQRLVLSTVVIFLACFLPYHVLLLVRSVWEASCDFAKGVFNAYHFSLLLTSFNCVADPVLYCFVSETTHRDLARLRGACLAFLTCSRTGRAREAYPLGAPEASGKSGAQGEEPELLTKLHPAFQTPNSPGSGGFPTGRLA

Tests used:
[1] = variants of: B1; test: cAMP reporter score (Enrich2 score, wild type = 0); higher = more signal; HEK293T, FACS bins
[2] = variants of: B1; test: surface expression score (Enrich2 score, wild type = 0); higher = more signal; HEK293T, FACS bins

L300Y
cAMP reporter score ([1]; pH 5.5): 1.26
cAMP reporter score ([1]; pH 6): 0.158
cAMP reporter score ([1]; pH 6, modulator: ogerin): 0.847
cAMP reporter score ([1]; pH 6.5, modulator: ogerin): 0.196
surface expression score [2]: 0.401

L300F
cAMP reporter score ([1]; pH 5.5): -0.61
cAMP reporter score ([1]; pH 6): 0.653
cAMP reporter score ([1]; pH 6, modulator: ogerin): -0.645
cAMP reporter score ([1]; pH 6.5, modulator: ogerin): 1.29
surface expression score [2]: 0.123

L300M
cAMP reporter score ([1]; pH 5.5): -0.305
cAMP reporter score ([1]; pH 6): -0.397
cAMP reporter score ([1]; pH 6, modulator: ogerin): -0.448
cAMP reporter score ([1]; pH 6.5, modulator: ogerin): 0.092
surface expression score [2]: -0.799

L300G
cAMP reporter score ([1]; pH 5.5): -0.428
cAMP reporter score ([1]; pH 6): -0.411
cAMP reporter score ([1]; pH 6, modulator: ogerin): -0.838
cAMP reporter score ([1]; pH 6.5, modulator: ogerin): -0.896
surface expression score [2]: -0.877

L300S
cAMP reporter score ([1]; pH 5.5): 0.392
cAMP reporter score ([1]; pH 6): -0.808
cAMP reporter score ([1]; pH 6, modulator: ogerin): -0.559
cAMP reporter score ([1]; pH 6.5, modulator: ogerin): -0.977
surface expression score [2]: 0.801

L300K
cAMP reporter score ([1]; pH 5.5): 1.05
cAMP reporter score ([1]; pH 6): 0.051
cAMP reporter score ([1]; pH 6, modulator: ogerin): 0.762
cAMP reporter score ([1]; pH 6.5, modulator: ogerin): -0.287
surface expression score [2]: 0.448

L300W
cAMP reporter score ([1]; pH 5.5): 0.18
cAMP reporter score ([1]; pH 6): 0.754
cAMP reporter score ([1]; pH 6, modulator: ogerin): 0.515
cAMP reporter score ([1]; pH 6.5, modulator: ogerin): 1.49
surface expression score [2]: -0.024

L300T
cAMP reporter score ([1]; pH 5.5): 0.025
cAMP reporter score ([1]; pH 6): -0.961
cAMP reporter score ([1]; pH 6, modulator: ogerin): -0.825
cAMP reporter score ([1]; pH 6.5, modulator: ogerin): -0.628
surface expression score [2]: 0.009

L300E
cAMP reporter score ([1]; pH 5.5): -0.973
cAMP reporter score ([1]; pH 6): -0.37
cAMP reporter score ([1]; pH 6, modulator: ogerin): -1.6
cAMP reporter score ([1]; pH 6.5, modulator: ogerin): -0.649
surface expression score [2]: 0.604

L300C
cAMP reporter score ([1]; pH 5.5): 0.291
cAMP reporter score ([1]; pH 6): 0.192
cAMP reporter score ([1]; pH 6, modulator: ogerin): 0.005
cAMP reporter score ([1]; pH 6.5, modulator: ogerin): -0.278
surface expression score [2]: -0.127

L300I
cAMP reporter score ([1]; pH 5.5): 0.365
cAMP reporter score ([1]; pH 6): 1.04
cAMP reporter score ([1]; pH 6, modulator: ogerin): 0.144
cAMP reporter score ([1]; pH 6.5, modulator: ogerin): -0.511
surface expression score [2]: 0.427

L300Q
cAMP reporter score ([1]; pH 5.5): -0.537
cAMP reporter score ([1]; pH 6): -1.58
cAMP reporter score ([1]; pH 6, modulator: ogerin): -1.54
cAMP reporter score ([1]; pH 6.5, modulator: ogerin): -1.07
surface expression score [2]: -0.094

L300N
cAMP reporter score ([1]; pH 5.5): -0.53
cAMP reporter score ([1]; pH 6): -0.98
cAMP reporter score ([1]; pH 6, modulator: ogerin): -0.845
cAMP reporter score ([1]; pH 6.5, modulator: ogerin): -1.02
surface expression score [2]: 0.665

S328G
cAMP reporter score ([1]; pH 5.5): 0.571
cAMP reporter score ([1]; pH 6): 0.351
cAMP reporter score ([1]; pH 6, modulator: ogerin): 0.963
cAMP reporter score ([1]; pH 6.5, modulator: ogerin): 1
surface expression score [2]: 0.348

S328D
cAMP reporter score ([1]; pH 5.5): 0.616
cAMP reporter score ([1]; pH 6): -0.286
cAMP reporter score ([1]; pH 6, modulator: ogerin): 0.576
cAMP reporter score ([1]; pH 6.5, modulator: ogerin): 0.396
surface expression score [2]: 0.227

S328C
cAMP reporter score ([1]; pH 5.5): 1.31
cAMP reporter score ([1]; pH 6, modulator: ogerin): 0.755
cAMP reporter score ([1]; pH 6.5, modulator: ogerin): 0.621
surface expression score [2]: 1.33

S328A
cAMP reporter score ([1]; pH 5.5): 0.239
cAMP reporter score ([1]; pH 6, modulator: ogerin): 0.707
surface expression score [2]: 0.497

S328F
cAMP reporter score ([1]; pH 5.5): -0.097
cAMP reporter score ([1]; pH 6): 0.344
cAMP reporter score ([1]; pH 6, modulator: ogerin): -0.215
cAMP reporter score ([1]; pH 6.5, modulator: ogerin): -0.09
surface expression score [2]: 0.026

S328E
cAMP reporter score ([1]; pH 5.5): 1.68
cAMP reporter score ([1]; pH 6): 0.006
cAMP reporter score ([1]; pH 6, modulator: ogerin): 1.15
cAMP reporter score ([1]; pH 6.5, modulator: ogerin): 0.856
surface expression score [2]: 1.18

E318_A319insGS
cAMP reporter score ([1]; pH 5.5): 0.138
cAMP reporter score ([1]; pH 6): 0.738
cAMP reporter score ([1]; pH 6, modulator: ogerin): 1.01
cAMP reporter score ([1]; pH 6.5, modulator: ogerin): 0.456
surface expression score [2]: 0.313

E326del
cAMP reporter score ([1]; pH 5.5): 1.18
cAMP reporter score ([1]; pH 6): 0.113
cAMP reporter score ([1]; pH 6, modulator: ogerin): 1.56
surface expression score [2]: 0.732

R299_L300insG
cAMP reporter score ([1]; pH 5.5): 0.566
cAMP reporter score ([1]; pH 6): -0.925
cAMP reporter score ([1]; pH 6, modulator: ogerin): -1.45
cAMP reporter score ([1]; pH 6.5, modulator: ogerin): 0.075
surface expression score [2]: 1.24

L308Q
cAMP reporter score ([1]; pH 5.5): 0.104
cAMP reporter score ([1]; pH 6): 0.409
cAMP reporter score ([1]; pH 6, modulator: ogerin): 0.249
cAMP reporter score ([1]; pH 6.5, modulator: ogerin): -0.373
surface expression score [2]: -0.665

L308W
cAMP reporter score ([1]; pH 5.5): 0.341
cAMP reporter score ([1]; pH 6): -0.441
cAMP reporter score ([1]; pH 6, modulator: ogerin): 0.68
cAMP reporter score ([1]; pH 6.5, modulator: ogerin): -0.081
surface expression score [2]: -0.093

L308N
cAMP reporter score ([1]; pH 5.5): 0.973
cAMP reporter score ([1]; pH 6): 0.417
cAMP reporter score ([1]; pH 6, modulator: ogerin): 1.03
cAMP reporter score ([1]; pH 6.5, modulator: ogerin): 0.187
surface expression score [2]: 1.22

L308I
cAMP reporter score ([1]; pH 5.5): 0.577
cAMP reporter score ([1]; pH 6): 0.357
cAMP reporter score ([1]; pH 6, modulator: ogerin): 1.37
cAMP reporter score ([1]; pH 6.5, modulator: ogerin): 1.05
surface expression score [2]: 0.389

L308G
cAMP reporter score ([1]; pH 5.5): 1.52
cAMP reporter score ([1]; pH 6): 0.9
cAMP reporter score ([1]; pH 6, modulator: ogerin): 1.33
cAMP reporter score ([1]; pH 6.5, modulator: ogerin): 1.25
surface expression score [2]: 0.458

L308F
cAMP reporter score ([1]; pH 5.5): 0.174
cAMP reporter score ([1]; pH 6): 0.95
cAMP reporter score ([1]; pH 6, modulator: ogerin): 0.551
cAMP reporter score ([1]; pH 6.5, modulator: ogerin): 1
surface expression score [2]: 0.295

L308E
cAMP reporter score ([1]; pH 5.5): -0.56
cAMP reporter score ([1]; pH 6, modulator: ogerin): -0.655
cAMP reporter score ([1]; pH 6.5, modulator: ogerin): -0.664

L308T
cAMP reporter score ([1]; pH 5.5): 0.477
cAMP reporter score ([1]; pH 6): -0.598
cAMP reporter score ([1]; pH 6, modulator: ogerin): -0.316
cAMP reporter score ([1]; pH 6.5, modulator: ogerin): 0.507
surface expression score [2]: 0.177

L308R
cAMP reporter score ([1]; pH 5.5): 0.34
cAMP reporter score ([1]; pH 6): 0.289
cAMP reporter score ([1]; pH 6, modulator: ogerin): 0.132
cAMP reporter score ([1]; pH 6.5, modulator: ogerin): -0.948
surface expression score [2]: -0.618
